Where “and” joins values, the source holds several entries; their conditions need not be identical. Equal values may be shown once. Inconclusive results, whose numbers are uncertain, are shown with a selection of clear calls. Where the call is inconclusive, the potency comes from a doubtful curve fit. Calls of active or inactive are those of the source. Calls come from the whole dose curve; as a rule, active = well fitted curve in the direction sought with a large enough effect; inconclusive = small, poorly fitted or top-dose-only effect, or another doubt; inactive = no such curve, though single readings can be large; an effect the other way counts as inactive or inconclusive.
Key:
[1] = biological target: Rap guanine nucleotide exchange factor 3 (Homo sapiens) (UniProt O95398); experiment: Confirmatory qHTS for antagonist of cAMP-regulated guanine nucleotide exchange factor 3 (EPAC1) (AID 1645880); settings: EPAC1 Rap1B-BODIPY-GDP exchange, fluorescence; activity, negative = inhibition: at 115 µM (top of the series); note: nearly all actives have a fitted effect of over 55% in size;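 for activity, negative = inhibition: plate controls were DMSO only for no effect and full effect of the ATA control for full effect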
Sequence of UniProt O95398 (O95398 whole entry, looked up): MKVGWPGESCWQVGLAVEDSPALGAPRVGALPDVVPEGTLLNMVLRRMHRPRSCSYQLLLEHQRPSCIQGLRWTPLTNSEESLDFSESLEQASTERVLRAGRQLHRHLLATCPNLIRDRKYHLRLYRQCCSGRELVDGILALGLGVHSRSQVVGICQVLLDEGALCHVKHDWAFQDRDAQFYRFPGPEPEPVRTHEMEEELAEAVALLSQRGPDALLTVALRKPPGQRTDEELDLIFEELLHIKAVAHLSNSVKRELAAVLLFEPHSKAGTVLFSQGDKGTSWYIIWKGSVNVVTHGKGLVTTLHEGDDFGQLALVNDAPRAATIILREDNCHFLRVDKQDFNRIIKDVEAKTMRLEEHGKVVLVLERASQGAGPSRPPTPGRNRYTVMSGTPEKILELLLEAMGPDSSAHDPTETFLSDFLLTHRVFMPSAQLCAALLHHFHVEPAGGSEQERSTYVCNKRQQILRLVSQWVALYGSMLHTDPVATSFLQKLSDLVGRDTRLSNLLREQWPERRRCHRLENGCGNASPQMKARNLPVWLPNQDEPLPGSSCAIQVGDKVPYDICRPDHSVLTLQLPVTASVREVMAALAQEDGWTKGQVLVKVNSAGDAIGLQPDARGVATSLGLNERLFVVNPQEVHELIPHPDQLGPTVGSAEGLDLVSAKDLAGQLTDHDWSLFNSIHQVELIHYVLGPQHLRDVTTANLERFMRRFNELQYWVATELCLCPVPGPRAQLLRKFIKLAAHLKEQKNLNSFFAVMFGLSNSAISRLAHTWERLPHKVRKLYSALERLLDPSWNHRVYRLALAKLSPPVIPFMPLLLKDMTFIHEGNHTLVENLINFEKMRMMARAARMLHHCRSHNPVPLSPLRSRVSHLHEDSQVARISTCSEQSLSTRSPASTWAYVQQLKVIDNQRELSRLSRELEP
Procedure, shortened: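 Nucleotide exchange uses 100 nM EPAC1, 250 nM RAP1B-BODIPY-GDP and 50 uM GDP, with compounds in a concentration-titration series. After 5 min at room temperature, fluorescence (480 nm ex/540 nm em) is read every 5 min for 30 min. Data are normalized to control ATA and DMSO.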

[2] = biological target: Rap guanine nucleotide exchange factor 3 (Homo sapiens) (UniProt O95398); experiment: Counterscreen qHTS for agonist of cAMP-regulated guanine nucleotide exchange factor 3 (EPAC1) (AID 1645889); settings: EPAC1 Rap1B-BODIPY-GDP exchange, fluorescence; activation: at 154 µM (top of the series) unless noted; note: nearly all actives have a fitted effect of over 40% in size; for activation: % of control where 0% means no effect
Procedure, shortened: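 Rap1B–BODIPY-GDP (250 nM) with 50 uM GDP; compounds pin-transferred to 9.74 nM–152 uM final (activator) or from 7.32 nM upwards (inhibitor). Fluorescence Ex/Em 480/540 nm read at 5 and 30 min, then after adding cAMP or buffer, at room temperature.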
Potency is the fitted concentration of half-maximal effect; tags give direction and shape of the fitted curve.

SMILES	Potency [1]	Potency [2]	activation [2]
Cc1cc(C)cc(-n2ccnc2SCC(=O)Nc2ccc3c(c2)OCO3)c1	inconclusive: 84.9 µM [inhibitor, partial curve, poor fit]	inconclusive: 28.2 µM [activator, partial curve, poor fit]	–
COc1ccc(/C=C2/SC(=S)N(NS(=O)(=O)c3ccccc3)C2=O)cc1	active: 39.8 µM	–	inactive: -1.02% [at 30.8 µM]
COc1ccc(C2c3c(-c4ccccc4O)n[nH]c3C(=O)N2Cc2ccco2)cc1 (stereo not drawn)	inactive and inconclusive: 67.5 µM [inhibitor, partial curve]	inconclusive: 3.55 µM [activator, full curve]	–
CCc1nc2c(OCc3ccc(C(=O)OC)cc3)cccn2c1N(C)C(=O)c1ccc(C)cc1	inconclusive: 42.6 µM [inhibitor, full curve, poor fit]	inconclusive: 12.6 µM [activator, partial curve, poor fit]	–
C/C(=N\Nc1nc2ccccc2[nH]1)c1cc2ccccc2o1	inconclusive: 50.1 µM [inhibitor, partial curve]	inconclusive: 14.1 µM [activator, partial curve, poor fit]	–
Cc1ccc(NC(=O)CC2S/C(=N/N=C3\CCCc4ccccc43)NC2=O)cc1 (stereo not drawn)	inconclusive: 3.98 µM [inhibitor, partial curve]	inconclusive: 10 µM [activator, partial curve, poor fit]	–
O=C(Cc1ccccc1Cl)Nc1ccc(S(=O)(=O)Nc2nccs2)cc1	inactive	inconclusive: 0.112 µM [activator, full curve, poor fit]	–
O=c1cc(-c2ccccc2)[nH]n1-c1nc2ccccc2s1	inconclusive: 70.8 µM [inhibitor, single point]	–	inconclusive: 64.3% [activator] [at 30.8 µM]
Cc1nnc(N/N=C\c2ccc(-c3ccccc3[N+](=O)[O-])o2)n1N	inactive	–	inactive: 36.2% [at 30.8 µM]
Cc1cc2nc(-c3ccc(SCc4ccccn4)nc3)[nH]c2cc1C	inconclusive: 39.8 µM [inhibitor, partial curve]	–	inactive: 19.2% [at 30.8 µM]
COC(=O)c1ccc2nc(C3CCCCC3)c(Cc3cccc(F)c3)n2c1	inactive	–	inconclusive: 30.1% [activator]
Cn1c(SCC(=O)c2ccc3c(c2)Cc2ccccc2-3)nnc1-c1ccccc1	inconclusive: 15.8 µM [inhibitor, partial curve]	inconclusive: 14.1 µM [activator, partial curve, poor fit]	–
CCCCCNC(=O)C(C#N)c1nc2ccccc2nc1N1CCCC1 (stereo not drawn)	inconclusive: 50.1 µM [inhibitor, partial curve, poor fit]	–	inactive: -1.55% [at 30.8 µM]
Clc1ccc(Cn2c(/C=C/c3ccco3)nc3ccccc32)cc1	inconclusive: 33.8 µM [inhibitor, partial curve]	inactive	–
O=C1CSC(c2cccc(Cl)c2Cl)N1c1ccccn1 (stereo not drawn)	inconclusive: 1.12 µM [inhibitor, full curve, poor fit]	–	inconclusive: 51.3% [activator] [at 30.8 µM]
Brc1cc2c(cc1CSc1ncccn1)OCO2	inconclusive: 44.7 µM [inhibitor, partial curve, poor fit]	inconclusive: 0.0447 µM [activator, full curve, poor fit]	–
NS(=O)(=O)c1ccc(Nc2nc3ccccc3nc2NS(=O)(=O)c2cccc([N+](=O)[O-])c2)cc1	active: 75.7 µM	inconclusive: 17.8 µM [activator, single point]	–
COc1cc(/C=C(\C#N)C(=O)Nc2ccccc2C(=O)O)cc(Cl)c1OC	inconclusive: 84.9 µM [inhibitor, partial curve, poor fit]	inactive	–
CCOc1ccc(N2CC(c3nc4ccccc4n3Cc3cccc(Cl)c3)CC2=O)cc1 (stereo not drawn)	inactive	inconclusive: 11.2 µM [activator, full curve]	–
Cc1ccc(S(=O)(=O)Nc2ccccc2C=Nc2cccc(C)c2C)cc1	inactive	–	inconclusive: 51.9% [activator]
CCC(C(=O)OCC(=O)Nc1cc(C)ccc1OC)c1ccccc1 (stereo not drawn)	inactive	inconclusive: 0.01 µM [activator, full curve, poor fit]	–
CCc1ccc(C=C2SC(=S)N(CCCC(=O)Nc3ccc(C(=O)O)cc3)C2=O)cc1	inconclusive: 19 µM [inhibitor, full curve]	inactive	–
CSc1cccc(N2CC(C(=O)Nc3cccc(S(=O)(=O)N4CCCC4)c3)CC2=O)c1 (stereo not drawn)	inconclusive: 50.1 µM [inhibitor, partial curve, poor fit]	inconclusive: 12.6 µM [activator, single point]	–
O=c1[nH]cc(N=Cc2cc(Cl)cc(Cl)c2O)c(=O)[nH]1	inconclusive: 37.9 µM [inhibitor, partial curve]	–	inconclusive: 34.1% [activator]
CCN(CC)S(=O)(=O)c1cc(NC(=O)Cn2ncc(Cl)c(Cl)c2=O)ccc1C	active: 39.8 µM	–	inactive: 5.37% [at 30.8 µM]
Cc1cccc(NC(=O)c2ccc(-n3cncn3)c([N+](=O)[O-])c2)c1	inconclusive: 39.8 µM [inhibitor, partial curve, poor fit]	–	inactive: 23.9% [at 30.8 µM]
Cc1cccc(NC(=O)CC2Nc3cccc4cccc(c34)NC2=O)c1 (stereo not drawn)	active: 75.7 µM	–	inconclusive: 41.8% [activator]
CN(C)CC/C=C1/c2ccccc2Sc2c(O)cc(Cl)cc21	inactive	inconclusive: 10 µM [activator, partial curve, poor fit]	–
COc1cc(S(=O)(=O)Nc2ccccc2C)ccc1Cl	inactive	inconclusive: 0.005 µM [activator, partial curve, poor fit]	–

Reference: PubChem BioAssay (NCATS)
